Source: the supplement of paper PMC3334620
Over roughly 33,000 sequences, “E-score (-0.5 to 0.5)” has its median near -0.054; the highest 2% begin near 0.39. The list shows a part of the results.

target: Ylr278c (UniProt Q05854); assay: PBM E-score (8-mer binding enrichment) (E-score (-0.5 to 0.5)); higher = stronger / more preferred TF binding; most listed sequences are background and not binding sites; settings: protein concentration: 200 nM; construct: GST-DNA-binding domain
Outline: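 Each ungapped eight-base word and its reverse complement, pooled, received an E-score from the Universal PBM Analysis Suite. Underlying scans, normalised with masliner, recorded fluorescent anti-GST bound to GST-tagged yeast transcription factors. These were applied at about 100-200 nM to universal all-10-mer Agilent arrays double-stranded by primer extension.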

| Sequence | PBM E-score |
| --- | --- |
| CGCTGCCA | -0.0216 |
| GTCTTTGA | -0.182 |
| CCACGATC | -0.226 |
| ACGTTTAT | -0.164 |
| AGCAGACG | -0.00216 |
| GATGAGGA | -0.0716 |
| GGATTGAA | 0.161 |
| AGGCGTTC | -0.11 |
| ATTCGAGC | -0.201 |
| GTATGAAA | -0.026 |
| TATAGACA | -0.22 |
| GGGGGTAA | -0.206 |
| AAGTTAGT | 0.00861 |
| ACAGGGTA | -0.227 |
| GGGGGGGA | -0.333 |
| AAGTAACG | -0.0211 |
| GAATACGA | -0.0699 |
| TCACATGA | -0.274 |
| GGGGACAA | -0.00441 |
| CACGAGTA | -0.212 |
| AACTACTG | -0.0935 |
| ATGGATAG | 0.0332 |
| ATAGACAA | -0.151 |
| AGTTGCGC | 0.233 |
| CCCCTGCC | -0.086 |

| Sequence | PBM E-score |
| --- | --- |
| AACAGGGT | -0.0893 |
| CGATGCCC | 0.0482 |
| ATTGGAGA | -0.0108 |
| AATTGGAA | -0.00019 |
| CGGTGCGA | 0.0833 |
| ACAACTCA | -0.123 |
| CCAGACGG | -0.0129 |
| AATTCGAT | 0.0514 |
| GTACTCAA | -0.097 |
| ACGTGGGA | -0.252 |
| AGGCTATC | 0.0535 |
| AGAGGTTA | -0.0284 |
| AATCACCG | 0.251 |
| AATAGGAA | -0.0713 |
| TGCCGAAA | 0.325 |
| CCGCTATA | 0.145 |
| GTAGCCAA | -0.117 |
| CCAGAGAG | -0.181 |
| CGCTGGCC | -0.0482 |
| AGTATAAG | -0.0883 |
| CGACAGTC | -0.154 |
| CGAGAGTA | 0.113 |
| AGCAGCTG | -0.154 |
| AAACCGTT | -0.0983 |
| GTAGGCGA | -0.134 |

| Sequence | PBM E-score |
| --- | --- |
| CAGTGTGC | -0.227 |
| ATAAGATA | 0.0111 |
| AGGATGGC | 0.095 |
| ACACTCCG | 0.398 |
| CAGAGTGA | -0.0361 |
| AACTCGAT | -0.122 |
| CTCATTGA | -0.173 |
| AAGACCAC | -0.308 |
| CTCCATTC | -0.178 |
| CACAGTAC | -0.198 |
| CTACGGTC | 0.139 |
| AAATCATT | -0.0803 |
| CCCTTTTC | -0.201 |
| AGAATCCC | 0.125 |
| CTCGGGGC | 0.197 |
| CACAACAC | -0.132 |
| CAGTCCGG | 0.367 |
| ATTGCTCC | 0.256 |
| GTATAGCA | -0.0478 |
| CCTTCCAA | -0.186 |
| CATAGGCG | -0.14 |
| TACACCTA | -0.127 |
| GGGCAAAA | 0.232 |
| ACGGGCAT | 0.0221 |
| GCTAGAGC | -0.192 |

| Sequence | PBM E-score |
| --- | --- |
| GAACGCTA | -0.191 |
| GCAGGGAC | -0.211 |
| CCGGTGCC | 0.3 |
| ACCTAGCC | 0.00188 |
| AGGCTGTG | -0.168 |
| AACCCGGA | 0.435 |
| ATGCCATC | 0.0419 |
| ACGCGGTA | 0.0629 |
| GTTCAGTA | -0.228 |
| GCATATAC | -0.0784 |
| CGTTATCC | 0.169 |
| AACAGACC | -0.0625 |
| CAACTCTG | -0.0365 |
| CTCGGATC | 0.34 |
| CCTGACCG | 0.0942 |
| AAAGATTT | 0.0431 |
| CATTCGCC | 0.0184 |
| AAAAGGGT | -0.18 |
| TCGGATAA | 0.403 |
| TCTTATAA | 0.0583 |
| ATCGCCGA | 0.373 |
| AGTCCCCA | -0.251 |
| CGCGTAAC | 0.0516 |
| ATTAAAGC | -0.128 |
| CAGCGCTC | -0.0595 |

| Sequence | PBM E-score |
| --- | --- |
| TCACTCCA | -0.0238 |
| CGGTCAGA | 0.0192 |
| CTTCGCGA | 0.178 |
| TCAGGTAA | -0.264 |
| AAATGGAC | 0.2 |
| AGCAGTTC | -0.154 |
| CGTTATAA | 0.0292 |
| ATCAGCCA | -0.161 |
| TACGGGGA | 0.218 |
| AGGCCATC | -0.0692 |
| AGACTGTG | -0.306 |
| ATATCCGC | 0.38 |
| CAAAAAGG | -0.203 |
| AGTTGTTC | -0.0195 |
| CTAATGTC | -0.0159 |
| GTACGGAA | 0.31 |
| ATATCGGA | 0.391 |
| CAGCCTGG | -0.109 |
| TACCCGTA | -0.0475 |
| CTCCTACC | 0.00018 |
| TTGAAAAA | -0.0417 |
| AAAGTCTT | -0.0794 |
| ACTCTACT | -0.128 |
| ACGACGAA | 0.0437 |
| AGAGAAGA | -0.0422 |

| Sequence | PBM E-score |
| --- | --- |
| CCCCCAGA | -0.314 |
| ATTGCGTC | 0.174 |
| CACCCAAC | 0.0545 |
| AACTTATG | -0.176 |
| CGTAATTC | 0.0558 |
| ATAAGCTA | -0.0602 |
| CGCCAGTC | -0.0188 |
| ACTTGCAG | -0.202 |
| CTTAACCC | -0.124 |
| ACCTACTC | -0.035 |
| AGCCGGCC | 0.324 |
| AAGTCAGA | -0.0129 |
| CACGGTCA | -0.052 |
| AAGCTTGA | -0.0383 |
| AGTATGTC | -0.229 |
| GCCCAAAC | 0.082 |
| GAAATATC | 0.145 |
| AGGTAACT | -0.0857 |
| CCTCAAGA | 0.0387 |
| AAAGAGAA | -0.0443 |
| CCCTTTCC | -0.0771 |
| ACCAACAA | 0.0102 |
| TCAACGAA | 0.00562 |
| ATGGCCAG | 0.0813 |
| AGCGAAAA | -0.031 |

| Sequence | PBM E-score |
| --- | --- |
| GTATGCCA | -0.181 |
| ACTTTCCC | 0.108 |
| CTTGTTTA | 0.00478 |
| AACGCGGT | 0.149 |
| CAATCTTA | -0.133 |
| ACCTTGCA | -0.233 |
| CCGTGATC | 0.0826 |
| ACCAGCGG | 0.209 |
| CCCAAAAA | -0.138 |
| TAATCGTA | -0.186 |
| TCCTGAGA | -0.102 |
| AGAGGATC | -0.118 |
| AAGTAATA | -0.155 |
| CCAAGAAC | -0.173 |
| AGTTCAAT | -0.12 |
| CCGCCTAC | 0.172 |
| ACCTAATG | -0.331 |
| GCACACAC | -0.121 |
| GTCCACAA | -0.152 |
| TTAGCTAA | -0.273 |
| ACTACAAA | -0.0603 |
| ATTGCGTG | 0.0465 |
| ACGATCCG | 0.283 |
| ACCACAAG | 0.00571 |
| CGGTCCGC | 0.38 |

| Sequence | PBM E-score |
| --- | --- |
| ATGTCGAG | -0.0607 |
| GGTCGAGA | -0.0915 |
| ATTAGATC | -0.0538 |
| GCAAGCTA | -0.171 |
| CACCTACA | -0.249 |
| AACTGACT | -0.103 |
| GCGTACAC | -0.137 |
| ATCGGATG | 0.329 |
| CTTGCAGC | -0.124 |
| AACGTAAG | -0.134 |
| GATTCTGA | -0.107 |
| ATCTTTAC | -0.0617 |
| CAATACTG | -0.208 |
| ACAATAAT | 0.042 |
| CGACCTCG | 0.0415 |
| TCACGAGA | -0.189 |
| CACTCCTG | -0.0899 |
| ACTGAAGC | -0.124 |
| GCACCAGA | -0.14 |
| AGCCGCAA | -0.0333 |
| CCGCTTTC | 0.211 |
| GGGCTTCA | 0.014 |
| ATAGTCAG | -0.158 |
| CAAACGCG | 0.153 |
| GCGTTAGA | 0.107 |

| Sequence | PBM E-score |
| --- | --- |
| AATTAACG | 0.0135 |
| ATTACCTC | 0.013 |
| AACGCGAC | -0.129 |
| ATGCAAAG | -0.16 |
| TGCCGACA | 0.196 |
| CCATTGTA | 0.0421 |
| TACAAGCA | -0.00116 |
| AATGCACT | -0.209 |
| ACGTATAT | -0.316 |
| CCCGAAAC | 0.177 |
| ATCTGGTC | -0.0594 |
| TGATGCAA | -0.244 |
| GACAAACA | -0.0246 |
| ACCCGGAA | 0.394 |
| TATTTAGA | -0.179 |
| GTCTAGAA | 0.0195 |
| CTGAAGGC | -0.261 |
| CATCCCCG | 0.396 |
| CAAAATTC | 0.238 |
